# Measured values: the supplement of paper PMC8728848
# Some of the results follow.
# Assays:
# Test in all cases: glycan array binding signal (z-score within array); higher = stronger binding
# Details in all cases: glycan notation: IUPAC condensed, linker removed
# [1] = target: Gal(b1-3)GlcNAc(b1-3)Gal(b1-3)GlcNAc
# Outline: (§1)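 The binding signal is a Z-score computed within each array. Data were drawn from 3228 arrays in the Consortium for Functional Glycomics database, restricted to those with a known protein sequence. Scores were averaged over arrays of the same protein sequence at different concentrations or buffers, and over linkers, and negative values can be taken as non-binding.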
# [2] = target: Gal(b1-3)GlcNAc(b1-3)Gal(b1-4)Glc
# Outline: as §1
# [3] = target: Gal(b1-3)GlcNAc(b1-3)Gal(b1-4)GlcNAc
# Outline: as §1
# [4] = target: Gal(b1-3)[Fuc(a1-4)]GlcNAc
# Outline: as §1
# [5] = target: Gal(b1-3)[Fuc(a1-4)]GlcNAc(b1-2)Man(a1-3)[Gal(b1-3)[Fuc(a1-4)]GlcNAc(b1-2)Man(a1-6)]Man(b1-4)GlcNAc(b1-4)GlcNAc
# Outline: as §1
# [6] = target: Gal(b1-3)[Fuc(a1-4)]GlcNAc(b1-2)Man(a1-3)[Gal(b1-3)[Fuc(a1-4)]GlcNAc(b1-2)Man(a1-6)]Man(b1-4)GlcNAc(b1-4)[Fuc(a1-6)]GlcNAc
# Outline: as §1
# [7] = target: Gal(b1-3)[Fuc(a1-4)]GlcNAc(b1-3)Gal(b1-3)[Fuc(a1-4)]GlcNAc
# Outline: as §1
# [8] = target: Gal(b1-3)[Fuc(a1-4)]GlcNAc(b1-3)Gal(b1-4)GlcNAc
# Outline: as §1
# [9] = target: Gal(b1-3)[Fuc(a1-4)]GlcNAc(b1-3)Gal(b1-4)[Fuc(a1-3)]GlcNAc
# Outline: as §1
# [10] = target: Gal(b1-3)[GlcNAc(b1-6)]GalNAc
# Outline: as §1
# [11] = target: Gal(b1-3)[Neu5Ac(a2-6)]GalNAc
# Outline: as §1
# [12] = target: Gal(b1-3)[Neu5Ac(a2-6)]GlcNAc(b1-4)Gal(b1-4)Glc
# Outline: as §1
# [13] = target: Gal(b1-3)[Neu5Ac(a2-6)]GlcNAc(b1-6)Gal(b1-4)Glc
# Outline: as §1
# [14] = target: Gal(b1-3)[Neu5Ac(b2-6)]GalNAc
# Outline: as §1
# [15] = target: Gal(b1-4)GalNAc(a1-3)[Fuc(a1-2)]Gal(b1-4)GlcNAc
# Outline: as §1
# [16] = target: Gal(b1-4)GalNAc(b1-3)[Fuc(a1-2)]Gal(b1-4)GlcNAc
# Outline: as §1
# [17] = target: Gal(b1-4)Glc
# Outline: as §1
# [18] = target: Gal(b1-4)Glc6S
# Outline: as §1
# [19] = target: Gal(b1-4)GlcNAc
# Outline: as §1
# [20] = target: Gal(b1-4)GlcNAc(a1-6)Gal(b1-4)GlcNAc
# Outline: as §1
# [21] = target: Gal(b1-4)GlcNAc(b1-2)Man(a1-3)Man(b1-4)GlcNAc(b1-4)GlcNAc
# Outline: as §1
# [22] = target: Gal(b1-4)GlcNAc(b1-2)Man(a1-3)[Gal(b1-4)GlcNAc(b1-2)Man(a1-6)]Man(b1-4)GlcNAc(b1-4)GlcNAc
# Outline: as §1
# [23] = target: Gal(b1-4)GlcNAc(b1-2)Man(a1-3)[Gal(b1-4)GlcNAc(b1-2)Man(a1-6)]Man(b1-4)GlcNAc(b1-4)[Fuc(a1-6)]GlcNAc
# Outline: as §1
# [24] = target: Gal(b1-4)GlcNAc(b1-2)Man(a1-3)[Man(a1-6)]Man(b1-4)GlcNAc(b1-4)GlcNAc
# Outline: as §1
# [25] = target: Gal(b1-4)GlcNAc(b1-2)Man(a1-6)Man(b1-4)GlcNAc(b1-4)GlcNAc
# Outline: as §1
# [26] = target: Gal(b1-4)GlcNAc(b1-2)Man(a1-6)[Man(a1-3)]Man(b1-4)GlcNAc(b1-4)GlcNAc
# Outline: as §1
# [27] = target: Gal(b1-4)GlcNAc(b1-2)[Gal(b1-4)GlcNAc(b1-4)]Man(a1-3)[Gal(b1-4)GlcNAc(b1-2)Man(a1-6)]Man(b1-4)GlcNAc(b1-4)GlcNAc
# Outline: as §1
# [28] = target: Gal(b1-4)GlcNAc(b1-3)Gal(b1-3)GlcNAc
# Outline: as §1
# [29] = target: Gal(b1-4)GlcNAc(b1-3)Gal(b1-4)Glc
# Outline: as §1
# [30] = target: Gal(b1-4)GlcNAc(b1-3)Gal(b1-4)GlcNAc
# Outline: as §1
# [31] = target: Gal(b1-4)GlcNAc(b1-3)Gal(b1-4)GlcNAc(b1-3)Gal(b1-4)GlcNAc
# Outline: as §1
# [32] = target: Gal(b1-4)GlcNAc(b1-3)Gal(b1-4)[Fuc(a1-3)]GlcNAc(b1-3)Gal(b1-4)[Fuc(a1-3)]GlcNAc
# Outline: as §1
# [33] = target: Gal(b1-4)GlcNAc(b1-3)GalNAc
# Outline: as §1
# [34] = target: Gal(b1-4)GlcNAc(b1-3)[Gal(b1-4)GlcNAc(b1-6)]Gal(b1-4)GlcNAc
# Outline: as §1
# [35] = target: Gal(b1-4)GlcNAc(b1-3)[Gal(b1-4)GlcNAc(b1-6)]GalNAc
# Outline: as §1
# [36] = target: Gal(b1-4)GlcNAc(b1-3)[GlcNAc(b1-6)]Gal(b1-4)GlcNAc
# Outline: as §1
# [37] = target: Gal(b1-4)GlcNAc(b1-6)Gal(b1-4)GlcNAc
# Outline: as §1
# [38] = target: Gal(b1-4)GlcNAc(b1-6)Gal(b1-4)GlcNAc(b1-6)GalNAc
# Outline: as §1
# [39] = target: Gal(b1-4)GlcNAc(b1-6)GalNAc
# Outline: as §1
# [40] = target: Gal(b1-4)GlcNAc(b1-6)[Gal(b1-3)]GalNAc
# Outline: as §1
# [41] = target: Gal3S(b1-3)GalNAc
# Outline: as §1
# [42] = target: Gal3S(b1-3)GlcNAc
# Outline: as §1
# [43] = target: Gal3S(b1-3)[Fuc(a1-4)]GlcNAc
# Outline: as §1
# [44] = target: Gal3S(b1-4)Glc
# Outline: as §1
# [45] = target: Gal3S(b1-4)Glc6S
# Outline: as §1
binder,measurement,setting,value
"MVL (Microcystis viridis), Q9RHG4 (protein) MASYKVNIPAGPLWSNAEAQQVGPKIAAAHQGNFTGQWTTVVESAMSVVEVELQVENTGIHEFKTDVLAGPLWSNDEAQKLGPQIAASYGAEFTGQWRTIVEGVMSVIQIKYTF",glycan array binding signal (z-score),[1],-0.24
same,glycan array binding signal (z-score),[2],-0.237
same,glycan array binding signal (z-score),[3],-0.232
same,glycan array binding signal (z-score),[4],-0.232
same,glycan array binding signal (z-score),[5],0.252
same,glycan array binding signal (z-score),[6],0.237
same,glycan array binding signal (z-score),[7],-0.187
same,glycan array binding signal (z-score),[8],-0.202
same,glycan array binding signal (z-score),[9],-0.241
same,glycan array binding signal (z-score),[10],-0.237
same,glycan array binding signal (z-score),[11],-0.234
same,glycan array binding signal (z-score),[12],-0.206
same,glycan array binding signal (z-score),[13],-0.234
same,glycan array binding signal (z-score),[14],-0.236
same,glycan array binding signal (z-score),[15],-0.208
same,glycan array binding signal (z-score),[16],-0.253
same,glycan array binding signal (z-score),[17],-0.234
same,glycan array binding signal (z-score),[18],-0.238
same,glycan array binding signal (z-score),[19],-0.227
same,glycan array binding signal (z-score),[20],-0.236
same,glycan array binding signal (z-score),[21],1.02
same,glycan array binding signal (z-score),[22],1.51
same,glycan array binding signal (z-score),[23],1.26
same,glycan array binding signal (z-score),[24],1.23
same,glycan array binding signal (z-score),[25],0.977
same,glycan array binding signal (z-score),[26],1.45
same,glycan array binding signal (z-score),[27],1.29
same,glycan array binding signal (z-score),[28],-0.23
same,glycan array binding signal (z-score),[29],-0.235
same,glycan array binding signal (z-score),[30],-0.238
same,glycan array binding signal (z-score),[31],-0.236
same,glycan array binding signal (z-score),[32],-0.238
same,glycan array binding signal (z-score),[33],-0.238
same,glycan array binding signal (z-score),[34],-0.245
same,glycan array binding signal (z-score),[35],-0.237
same,glycan array binding signal (z-score),[36],-0.231
same,glycan array binding signal (z-score),[37],-0.241
same,glycan array binding signal (z-score),[38],-0.184
same,glycan array binding signal (z-score),[39],-0.244
same,glycan array binding signal (z-score),[40],-0.238
same,glycan array binding signal (z-score),[41],-0.219
same,glycan array binding signal (z-score),[42],-0.239
same,glycan array binding signal (z-score),[43],-0.248
same,glycan array binding signal (z-score),[44],-0.232
same,glycan array binding signal (z-score),[45],-0.232
